Test results published in the supplement of paper PMC3334620.
Whole data set: some 33,000 sequences, median “E-score (-0.5 to 0.5)” near -0.041, cut for the highest 2% near 0.37. This is one part of the list.

Target: T1, Ecm22 (UniProt Q05958)
T1 sequence: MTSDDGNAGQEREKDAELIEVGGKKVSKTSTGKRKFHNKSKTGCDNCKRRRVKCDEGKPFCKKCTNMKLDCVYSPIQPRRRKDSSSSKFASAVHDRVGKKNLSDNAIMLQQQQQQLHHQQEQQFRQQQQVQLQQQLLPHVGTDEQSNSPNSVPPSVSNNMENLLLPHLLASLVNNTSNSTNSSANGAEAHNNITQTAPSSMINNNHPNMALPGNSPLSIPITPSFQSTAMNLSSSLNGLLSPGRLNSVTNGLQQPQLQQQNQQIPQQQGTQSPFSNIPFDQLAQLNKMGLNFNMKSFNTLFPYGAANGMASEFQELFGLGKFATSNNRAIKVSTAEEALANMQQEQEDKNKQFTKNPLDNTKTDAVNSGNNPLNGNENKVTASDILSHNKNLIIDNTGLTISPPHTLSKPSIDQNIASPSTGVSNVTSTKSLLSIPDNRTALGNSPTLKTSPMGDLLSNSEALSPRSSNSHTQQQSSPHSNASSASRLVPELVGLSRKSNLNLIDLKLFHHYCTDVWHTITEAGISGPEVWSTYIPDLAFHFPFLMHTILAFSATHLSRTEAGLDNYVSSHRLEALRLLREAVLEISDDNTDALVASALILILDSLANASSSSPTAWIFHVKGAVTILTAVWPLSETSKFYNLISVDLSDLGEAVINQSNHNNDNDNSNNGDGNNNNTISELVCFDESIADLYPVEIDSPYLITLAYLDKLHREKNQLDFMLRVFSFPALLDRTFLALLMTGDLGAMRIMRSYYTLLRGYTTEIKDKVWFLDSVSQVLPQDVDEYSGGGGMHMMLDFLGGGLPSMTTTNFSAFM
Test: PBM E-score (8-mer binding enrichment) (E-score (-0.5 to 0.5)); higher = stronger / more preferred TF binding; most listed sequences are background and not binding sites
Settings: protein concentration: 200 nM; construct: GST-full length
Description: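 Universal 'all 10-mer' protein binding microarrays (Agilent AMADID 015681) probed with GST-tagged S. cerevisiae TFs (full-length or DBD) made by in vitro transcription/translation (PURExpress), about 100-200 nM. Bound TF was detected with fluorescent anti-GST. Each ungapped 8-mer (which stands for itself and its reverse complement) is scored by the PBM enrichment score (E-score), a modified Wilcoxon-Mann-Whitney statistic from -0.5 to +0.5, computed with the Universal PBM Analysis Suite. Scale: above 0.35 generally sequence-specific binding.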

Sequence | PBM E-score
GATTGCAC | -0.0792
CTCCACCC | -0.126
AAGGAACT | -0.0399
ACATATAG | 0.0136
TGTGAAAA | -0.186
GATCAGGA | -0.069
GATAGATA | 0.0468
ACAGGACT | -0.191
AAGATGGT | -0.101
ATTGACTC | -0.0667
ATGTTCGA | 0.0458
GTCAGGGA | -0.19
TACGGATA | 0.284
AGCATAAC | 0.0747
GCTCGGTA | 0.248
CGACTGGC | 0.0893
ATACAAGC | 0.00134
ACTTTATA | 0.115
CAGGGTGG | -0.174
CTGTTGAC | -0.0959
ACATGTGA | -0.18
ACGTCCTC | -0.121
AGATACGC | 0.196
CAAAATAA | -0.041
ATCTGAGA | -0.0964

Sequence | PBM E-score
CACATATC | -0.155
GATGACCA | -0.173
ATTCTACC | -0.12
GATCATAC | 0.189
AGGAATGG | -0.0846
AGACTTCC | -0.194
AATACACC | 0.0737
CGACCTAG | 0.0727
GCGCTTCC | 0.0166
GCTTGAAA | -0.171
ATAACGTC | -0.00491
TCGCTTCA | 0.0662
GCCCCAAA | 0.00296
GGCAGACA | 0.0507
CTTTGTCA | -0.156
ACCGCAAG | 0.0466
CCTCGATA | 0.0197
AGTCTGGA | -0.108
GCTTCCTA | -0.0356
AACAAACG | 0.316
GCGGTCCC | 0.00111
TCTCTACA | -0.132
AGGCACGA | 0.0187
TTAGGGAA | -0.0515
CAGAGAAC | -0.0947

Sequence | PBM E-score
ATGAAAGC | 0.012
CACGCCTA | -0.135
CCTAGAGC | -0.274
CGGATTAC | 0.035
CGTTGGAG | -0.14
GTTTCACA | 0.0248
GGCTTTCA | 0.0111
ACGTGCCC | 0.0357
GACTGCCA | -0.0313
GCCGCCCA | -0.0582
AATGAAGG | 0.0103
AGTCAAAG | -0.0501
ACGCACAA | -0.0159
ACAGTTTA | -0.0338
GAGCACCC | -0.027
CAAGTCAC | -0.116
GGGGATAC | -0.0258
CAGATTTC | -0.00105
GCGCACAC | -0.264
CGCAACGC | 0.0974
CTTCCCAC | 0.00615
GCAACCAA | -0.202
AGAACTAA | -0.0584
GGAACACC | -0.163
TCAACGCA | 0.0682

Sequence | PBM E-score
GACCCTCC | 0.00379
ATCGACGG | -0.137
GACGGTGA | -0.144
CGTAGAGC | 0.179
CCATTCGA | -0.0965
CTCCGAGC | 0.0444
CATAATTA | 0.0847
AAGATGTA | 0.00374
ACCCTAAT | -0.151
ACGGGTTC | 0.0509
GGCTCTAC | 0.0149
TAAGACAA | -0.0947
CCGCCGCA | 0.0487
CCCGGATA | 0.0413
CTCTCATC | -0.0888
CGTCCACA | -0.222
CGGATCAA | 0.075
CGGACACC | 0.00732
GTCCGACA | 0.0997
GGGCGTTA | 0.0866
AGCGGAGC | 0.111
TAGTCTGA | -0.119
ACACCGAC | -0.0448
ATGATTTA | 0.0824
CATCGGGA | 0.0161

Sequence | PBM E-score
GGCAAATA | 0.0111
CAGGAGGG | -0.302
GTCCCATA | 0.00889
GTAAGAAC | 0.183
CTCGTAAC | 0.428
ACAAACCT | -0.161
AATTTCAA | -0.13
CCATCAGG | -0.17
TATCACGA | 0.131
ATATAAGG | -0.0925
AACCTTCT | -0.217
CGGGCACG | -0.149
GTAATATA | 0.227
ACTGGGCA | -0.12
ACGTCGCA | 0.202
GTATGCTA | 0.141
CACCACAA | -0.0829
CCGCTAGG | -0.209
GTGTCCCA | 0.0205
AGGTCGAG | -0.165
GGAGGCAA | -0.183
CAGCGAAC | 0.0949
GCGCAATA | 0.0797
GGCACATA | 0.00341
AGAAGGGC | -0.117

Sequence | PBM E-score
ATCAGGGG | -0.137
CGTTGCCA | 0.253
ATCGATTC | -0.0489
GGGCTGAA | -0.105
AGAGATAA | -0.0829
CACACACG | 0.0562
ATCGGCTG | -0.105
AACGCAGA | 0.0206
AGTTTTTC | 0.00828
CGTGGACC | -0.108
TCGTCAGA | -0.0689
GAGTTATA | -0.0106
AGGATAGG | 0.00377
GGCGAGGA | -0.0667
CCCTTTTA | -0.255
CGGACTAG | -0.0708
GCCATACC | -0.175
ATGTGGTA | -0.0336
CGTTAGAG | 0.0242
GCGAGAGA | 0.125
ACTGATCT | 0.0127
GAGGACAC | -0.0953
ACCTCCAC | -0.141
GCGGCAAC | -0.141
ACATGCGA | 0.142

Sequence | PBM E-score
GCTATCCA | 0.00421
ATTCTTAA | 0.0259
CCGGGAAC | 0.171
ATCGGGTC | 0.174
CAGCACTC | -0.0915
GCGACACC | -0.0222
GATTTTGC | -0.0105
CCACCGGC | -0.16
CATCGCCG | -0.00069
ACCCCTTC | -0.198
CGTCTTTA | -0.0108
CCCTTGCC | -0.122
GAGCCGCA | -0.0299
CTACCCCC | -0.41
CCGACCGA | 0.203
GGACTATA | -0.00516
CGAATTGC | 0.166
AGGTACCG | 0.139
TCGCGGAA | 0.0328
GAATCTGC | -0.0858
GGACTGCC | -0.238
ATTAGCAC | 0.00659
